# Data as given in article PMC4336329 (PLoS ONE, 2015).
# Out of some 310,000 compounds screened, about 2,200 (0.71%) showed an effect of 50% or more. The effect is printed as a negative number. The list shows a part of the results.
# Molecular target: human ether-à-go-go-related gene (hERG) potassium channel (human, UniProt Q12809)
# Experiment: primary screen, population patch clamp on CHO cells stably expressing hERG
# Chain of human ether-à-go-go-related gene (hERG) potassium channel (Q12809 whole entry, looked up): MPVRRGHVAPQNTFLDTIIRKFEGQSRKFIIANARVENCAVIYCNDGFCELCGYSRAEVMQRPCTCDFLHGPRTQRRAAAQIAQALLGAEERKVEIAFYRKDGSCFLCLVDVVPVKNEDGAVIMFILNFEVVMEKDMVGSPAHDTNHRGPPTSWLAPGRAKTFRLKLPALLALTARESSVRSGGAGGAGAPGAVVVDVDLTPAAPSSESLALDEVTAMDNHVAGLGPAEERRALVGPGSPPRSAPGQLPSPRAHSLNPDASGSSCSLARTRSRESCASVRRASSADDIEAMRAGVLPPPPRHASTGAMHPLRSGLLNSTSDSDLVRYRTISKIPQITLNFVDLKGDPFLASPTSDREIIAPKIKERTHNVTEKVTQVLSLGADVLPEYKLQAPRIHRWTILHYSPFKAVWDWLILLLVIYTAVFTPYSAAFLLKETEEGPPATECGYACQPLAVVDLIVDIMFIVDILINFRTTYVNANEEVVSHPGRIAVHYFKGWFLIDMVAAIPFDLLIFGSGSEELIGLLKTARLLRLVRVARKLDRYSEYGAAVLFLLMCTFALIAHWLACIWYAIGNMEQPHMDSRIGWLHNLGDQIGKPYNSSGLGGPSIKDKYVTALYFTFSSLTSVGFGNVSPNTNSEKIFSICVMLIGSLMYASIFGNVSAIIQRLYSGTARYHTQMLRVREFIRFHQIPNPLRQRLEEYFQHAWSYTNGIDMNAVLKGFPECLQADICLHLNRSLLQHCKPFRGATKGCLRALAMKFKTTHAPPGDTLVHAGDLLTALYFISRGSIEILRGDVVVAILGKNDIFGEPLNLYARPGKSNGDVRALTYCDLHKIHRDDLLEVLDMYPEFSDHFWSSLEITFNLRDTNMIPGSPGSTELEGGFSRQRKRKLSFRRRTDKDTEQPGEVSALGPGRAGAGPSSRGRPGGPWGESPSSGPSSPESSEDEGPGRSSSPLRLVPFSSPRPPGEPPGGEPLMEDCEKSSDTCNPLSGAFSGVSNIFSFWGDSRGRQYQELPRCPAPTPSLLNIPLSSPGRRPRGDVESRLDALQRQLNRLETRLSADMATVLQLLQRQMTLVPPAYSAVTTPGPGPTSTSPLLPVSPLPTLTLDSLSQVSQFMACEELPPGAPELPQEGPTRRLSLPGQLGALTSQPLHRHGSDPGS
row,SMILES,"hERG current change (%, negative = inhibition) at 1uM [%]"
1,CCCS(=O)(=O)N1CCN=C1SCc1cccc(C)c1,11.3
2,O=C(COC(=O)CC1SC(N2CCCC2)=NC1=O)Nc1c(F)c(F)c(F)c(F)c1F (centres unmarked),5.29
3,Cc1ccc(/C=N/NC(=O)c2cccc(S(=O)(=O)N3CCOCC3)c2)o1,8.14
4,O=C(Cc1ccc2c(c1)OCCO2)N1CCN(S(=O)(=O)c2cccs2)CC1,5.4
5,N#C/C(=C\c1ccc(-c2ccccc2[N+](=O)[O-])o1)C(N)=O,7.93
6,O=C(Cc1ccc(Cl)cc1)Nc1ccc(C(=O)N2CCCCC2)cc1,13
7,COc1ccc(C(=O)CSc2nnc(-c3cc(C)on3)o2)cc1,9.09
8,Cc1cccc(OCc2nnc(SCC(=O)N3CCCCC3)o2)c1,13.6
9,O=C(NCc1ccco1)/C(=C\c1ccco1)NC(=O)c1ccc(Br)o1,1.64
10,Cc1cc(NC(=O)c2cc(-c3cccnc3)nc3c(C)c(C)ccc23)no1,5.52
11,CN(C)c1ccnc(SCc2ccccc2Cl)c1C#N,1.99
12,CCOc1ccccc1NC(=O)N1CCC2(CC1)OCCO2,11.8
13,Cc1ccc2nc(CCc3nc4ccc(C)cc4o3)oc2c1,6.32
14,COc1ccc(S(=O)(=O)N2CCOCC2)cc1C(=O)NCc1ccccc1CN1CCCC1,3.13
15,CC(C)c1ccc(-c2nnn(CC(=O)N3CCCCC3)n2)cc1,7.35
16,Cc1ccc(OCC(=O)Nc2cc(C(=O)O)cc(C(=O)O)c2)cc1C,6.76
17,Cc1noc(C)c1COC(=O)C1CCN(S(=O)(=O)c2ccc(F)cc2)CC1,-2.72
18,C/C(CC(=O)Nc1ccc(N(C)C)cc1)=N\NC(=O)c1ccccn1,9.68
19,CCOC(=O)N1CCC(NC(=O)C(NS(=O)(=O)c2ccc3c(c2)CCN3C(=O)CC)C(C)C)CC1 (centres unmarked),-2.08

row,SMILES,"hERG current change (%, negative = inhibition) at 1uM [%]"
1,COc1cc2cc(C(=O)Nc3ccc4c(c3)OCCO4)[nH]c2cc1OC,15.6
2,CC(=O)C1=C(C)NC(=O)NC1c1ccccc1 (centres unmarked),10.7
3,CC(C)(C)NC(=O)NC(=O)CN1CCN(S(=O)(=O)c2ccc3c(c2)OCCO3)CC1,3.9
4,COc1cc2ncnc(NCc3cccs3)c2cc1OC,-9.04
5,COC(=O)c1cc(NC(=O)C2CC(=O)NC(=NCc3ccc(OC)cc3)S2)cc(C(=O)OC)c1 (centres unmarked),15.6
6,Cc1ccc(-n2nnc3c(=O)oc4ccccc4c32)cc1,10.4
7,CCOc1ccc(Cc2nnc(SCC(N)=O)n2C)cc1,4.75
8,Cc1cccc(C)c1NC(=O)NNC(=O)c1cc(C(C)(C)C)nn1Cc1ccccc1,8.31
9,CCOC(=O)N1CCN(c2c(-c3ccc(C)cc3)c(=O)c2=O)CC1,1.88
10,Nc1ccc(-c2nnnn2-c2ccc(N)cc2)cc1,14.8
11,CCCC1(C(=O)OC)NC(c2ccc(OC)c(OC)c2)C2C(=O)N(c3ccc4c(c3)OCO4)C(=O)C21 (centres unmarked),21
12,O=C(Nc1cccc(C(=O)Nc2cccc(C(F)(F)F)c2)c1)c1ccc(=O)[nH]c1,12.5
13,COc1ccc(N(C)C(=O)C2CCN(S(=O)(=O)c3cccc4nsnc34)CC2)cc1,12.4
14,O=C(CN1CCOCC1)Nc1ccc(Br)cc1C(=O)c1ccccc1,-3.67
15,COC(=O)Nc1nc2c(s1)CCCC2,10.4
16,CCOc1ccc(NC(=O)CN(C)C(=O)c2cc(C)on2)cc1OCC,18
17,O=c1[nH]c(CN2CCN(C/C=C/c3ccccc3)CC2)nc2ccccc12,-52.6
18,COc1ccc(-c2nc3c4ccccc4ccn3c2CN2CCCCC2)cc1OC.Cl,13.9
19,CCN1CCN(c2ccc([N+](=O)[O-])cc2C(=O)c2ccc(Cl)cc2)CC1,-58.3

row,SMILES,"hERG current change (%, negative = inhibition) at 1uM [%]"
1,CCN1CCN(C(=O)N[C@@H](C(=O)N[C@@H]2C(=O)N3C(C(=O)O)=C(CSc4nnnn4C)CS[C@H]23)c2ccc(O)cc2)C(=O)C1=O.O,14
2,CC(C)Oc1cccc(C(=O)C2CCCN(C(=O)CCn3cnnn3)C2)c1 (centres unmarked),-3.55
3,CCOc1ccc(N)c(SSc2cc(OCC)ccc2N)c1,15.6
4,COc1cc(N=Nc2c(C)n(C)n(-c3ccccc3)c2=O)ccc1N,14.6
5,CN1CCN(C2CCCCCC2)CC1,11.7
6,Cc1cc([N+](=O)[O-])nn1CCCC(=O)Nc1c(C)n(C)n(-c2ccccc2)c1=O,6.37
7,O=C(Nc1cccnc1)c1cc(-c2cccc(Cl)c2)on1,7.97
8,O=[N+]([O-])c1ccccc1S(=O)(=O)NCc1ccc(F)cc1,9.12
9,O=C(O)c1cccc(-c2ccc(/C=N/Nc3nn[nH]n3)o2)c1,2.95
10,Cn1c(SCC(=O)N/N=C/c2ccco2)nc2ccccc21,5.3
11,CCO[C@H]1OC(C(=O)NC2CC2)=C[C@@H](c2coc3ccccc3c2=O)[C@@H]1CCCO,13.4
12,CC(=O)Nc1ccc(Nc2c([N+](=O)[O-])cc(S(C)(=O)=O)cc2[N+](=O)[O-])cc1,12
13,CC(C)N1CCN(Cc2cccc3nonc23)CC1CCO (centres unmarked),10
14,CCOc1ccccc1NC(=O)NC1(C(=O)NCC2CCCO2)CCCCC1 (centres unmarked),12.9
15,Cc1cccc(/C=N/NC(=O)CC(=O)NCCc2ccccc2)c1,16.6
16,CSc1nnc(CSCc2ccc(Cl)cc2Cl)n1-c1ccccc1,13.6
17,CC(C)COc1ccc(C(=O)Nc2sc3c(c2C(=O)O)CC(C)(C)OC3)cc1,18.7
18,CS(=O)(=O)Nc1ccc(C(=O)Nc2ccc(S(=O)(=O)N3CCCC3)cc2)cc1,9.67
